Measured values published in patent US20260116960A1 (SHANGHAI HONGCHENG BIOPHARMACEUTICAL, published 2026).

Target: T1, human CTLA-4 protein (Acro, Catalog No. CT4-H52H9) (human, UniProt P16410 36-161)
T1 construct: Bought protein
Experiment: ELISA, plate coated with human CTLA-4 protein

T1 sequence (P16410 36-161 limits assumed): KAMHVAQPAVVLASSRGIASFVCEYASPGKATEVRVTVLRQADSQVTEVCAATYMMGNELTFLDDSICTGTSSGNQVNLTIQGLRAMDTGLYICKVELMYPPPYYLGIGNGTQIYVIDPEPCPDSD

- EC50: 127 pM
B1: HC010-F8 (trispecific antibody, human IgG4 S228P, kappa)
heavy: EVQLVESGGGLVQPGGSLRLSCAASGFTFSSYGMSWVRQAPGKCLEWVSTISGGGRDTYYPDSVKGRFTISRDNSKNTLYLQMNSLRAEDTAVYYCARQNGITWFADWGQGTLVTVSSGGGGSGGGGSGGGGSGGGGSDIQMTQSPSSLSASVGDRVTITCRASESVDNYGISFMNWYQQKPGKAPKLLIYAASNQGSGVPSRFSGSGSGTDFTLTISSLQPEDFATYYCQQSKEVPWTFGCGTKVEIKGGGGSGGGGSGGGGSGGGGSEVQLVESGGGLVQPGGSLRLSCAASGYTFTNYGMNWVRQAPGKGLEWVGWINTYTGEPTYAADFKRRFTFSLDTSKSTAYLQMNSLRAEDTAVYYCAKYPHYYGSSHWYFDVWGQGTLVTVSSASTKGPSVFPLAPCSRSTSESTAALGCLVKDYFPEPVTVSWNSGALTSGVHTFPAVLQSSGLYSLSSVVTVPSSSLGTKTYTCNVDHKPSNTKVDKRV[human IgG4 Fc with S228P (EU numbers) not spelt out]AGGGGSGGGGSGGGGSGGGGSEVQLLESGGGLVQPGGSLRLSCAASGSIFSINHMAWYRQAPGKQRELVAGVNSRGTTNYVDSVKGRFTISRDNSKNTLYLQMNSLRAEDTAVYYCRALGGAVAAWGQGTLVTVSS
light: DIQMTQSPSSLSASVGDRVTITCSASQDISNYLNWYQQKPGKAPKVLIYFTSSLHSGVPSRFSGSGSGTDFTLTISSLQPEDFATYYCQQYSTVPWTFGQGTKVEIKRTVAAPSVFIFPPSDEQLKSGTASVVCLLNNFYPREAKVQWKVDNALQSGNSQESVTEQDSKDSTYSLSSTLTLSKADYEKHKVYACEVTHQGLSSPVTKSFNRGEC
notes: light: bevacizumab VL-kappa; also called H010-F8
